Substitutions are numbered along the chain they refer to. Numbers in names are those of the source. These are yes or no findings as the source states them, for the method shown. For part of these data: Binding seen in cells or lysates may run through a third protein. Some results given as binding are weak or reduced against the parent protein; the word gives no strength. For part of these data: Tags and fused reporters may be left off the sequences shown.
Columns and labels:
PLD1 (R158Q) (rat) = biological target: T1, PLD1 (R158Q) (rat) (UniProt P70496); assay: pull-down; PLD1 constructs transiently expressed in HeLa cells, immunoprecipitated and incubated with purified GST-μ2 in the presence of 20 nM C6-PA; only the binder purified
T1 sequence: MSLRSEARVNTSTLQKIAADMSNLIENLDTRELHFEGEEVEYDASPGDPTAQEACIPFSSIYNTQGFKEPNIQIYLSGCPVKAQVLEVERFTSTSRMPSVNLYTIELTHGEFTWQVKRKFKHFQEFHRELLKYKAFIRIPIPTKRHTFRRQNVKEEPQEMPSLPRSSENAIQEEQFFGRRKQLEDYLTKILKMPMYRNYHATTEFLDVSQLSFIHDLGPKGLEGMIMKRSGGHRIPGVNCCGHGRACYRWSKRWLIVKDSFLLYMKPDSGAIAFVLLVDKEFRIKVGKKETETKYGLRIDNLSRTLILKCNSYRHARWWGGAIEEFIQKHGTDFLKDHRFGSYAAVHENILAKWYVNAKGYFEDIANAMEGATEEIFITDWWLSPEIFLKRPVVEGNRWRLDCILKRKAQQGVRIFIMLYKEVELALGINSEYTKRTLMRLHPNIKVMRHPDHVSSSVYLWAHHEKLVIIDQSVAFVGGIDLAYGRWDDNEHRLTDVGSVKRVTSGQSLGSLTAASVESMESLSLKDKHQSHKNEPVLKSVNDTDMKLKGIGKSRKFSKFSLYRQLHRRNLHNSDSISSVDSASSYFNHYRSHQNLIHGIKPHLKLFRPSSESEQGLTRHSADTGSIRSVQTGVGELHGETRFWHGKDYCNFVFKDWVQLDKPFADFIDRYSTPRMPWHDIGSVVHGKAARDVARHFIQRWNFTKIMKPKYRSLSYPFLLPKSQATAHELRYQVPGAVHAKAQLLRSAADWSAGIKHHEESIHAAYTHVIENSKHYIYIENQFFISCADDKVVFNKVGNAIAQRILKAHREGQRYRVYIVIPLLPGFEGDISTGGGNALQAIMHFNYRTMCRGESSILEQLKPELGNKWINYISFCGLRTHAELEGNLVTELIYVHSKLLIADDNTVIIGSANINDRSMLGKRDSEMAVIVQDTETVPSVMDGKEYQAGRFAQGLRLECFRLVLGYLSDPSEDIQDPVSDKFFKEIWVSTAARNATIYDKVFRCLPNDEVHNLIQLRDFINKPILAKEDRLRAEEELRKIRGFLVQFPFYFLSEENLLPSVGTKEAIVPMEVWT

Amino acid sequences for entries named in this document (tags omitted). Residues count along the entry.
UniProt P35568, residues 12-115: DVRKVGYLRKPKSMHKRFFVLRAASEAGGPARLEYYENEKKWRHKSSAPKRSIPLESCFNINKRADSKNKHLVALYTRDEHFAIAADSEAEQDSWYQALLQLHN
UniProt Q96CW1: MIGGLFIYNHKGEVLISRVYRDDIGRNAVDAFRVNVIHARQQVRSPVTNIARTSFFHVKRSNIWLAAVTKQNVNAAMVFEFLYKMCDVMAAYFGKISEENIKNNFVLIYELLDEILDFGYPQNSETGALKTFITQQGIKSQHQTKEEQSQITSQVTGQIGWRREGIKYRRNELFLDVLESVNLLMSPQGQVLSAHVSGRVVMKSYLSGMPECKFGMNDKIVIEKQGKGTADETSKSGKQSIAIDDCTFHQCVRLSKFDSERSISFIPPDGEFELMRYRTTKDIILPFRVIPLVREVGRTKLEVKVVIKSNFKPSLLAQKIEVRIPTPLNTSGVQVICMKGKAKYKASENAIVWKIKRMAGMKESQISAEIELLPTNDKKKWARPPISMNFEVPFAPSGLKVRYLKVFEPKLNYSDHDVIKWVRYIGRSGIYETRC

purified PLD1 = biological target: T2, purified PLD1 (UniProt P70496); assay: pull-down; purified PLD1 immobilized with anti-PLD antibody, incubated with purified GST-μ2; 500 µl buffer A (50 mM Hepes-NaOH pH 7.5, 3 mM MgCl2, 2 mM CaCl2, 3 mM EGTA, 80 mM KCl) with 1% Triton X-100, 4°C, 3 h; without or with C6-PA (PA increased the interaction in a dose-dependent manner); both purified
T2 sequence: T1 sequence with Q158R

[1] = biological target: GST fusion PH domain of IRS-1 (UniProt P35568); assay: pull-down; same amounts of GST fusion PLD1 fragments or GST fusion PH domains incubated with purified μ2; western blotting; both purified
[2] = biological target: T3, GST fusion PH domain of dynamin-1 (UniProt Q05193); assay: as above
T3 sequence: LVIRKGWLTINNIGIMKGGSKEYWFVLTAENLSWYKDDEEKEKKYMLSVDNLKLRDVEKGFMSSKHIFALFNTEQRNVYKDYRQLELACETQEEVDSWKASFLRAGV

[3] = biological target: T4, GST fusion PLD1 PH domain (UniProt P70496); assay: as above
T4 sequence: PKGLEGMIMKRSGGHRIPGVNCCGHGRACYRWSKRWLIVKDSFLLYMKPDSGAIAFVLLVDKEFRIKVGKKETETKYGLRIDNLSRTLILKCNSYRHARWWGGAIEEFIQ

GST-fusion PLD1 296–312 = biological target: T5, GST-fusion PLD1 296–312 (UniProt P70496); assay: as above
T5 sequence: GLRIDNLSRTLILKCNS

[4] = biological target: T6, phospholipase D (PLD)1, endogenous in HeLa cells (human (endogenous in HeLa)) (UniProt Q13393); assay: co-IP; as a1, but 1-butanol (0.4%) added 5 min prior to EGF (20 nM) to inhibit phosphatidic acid production
T6 sequence: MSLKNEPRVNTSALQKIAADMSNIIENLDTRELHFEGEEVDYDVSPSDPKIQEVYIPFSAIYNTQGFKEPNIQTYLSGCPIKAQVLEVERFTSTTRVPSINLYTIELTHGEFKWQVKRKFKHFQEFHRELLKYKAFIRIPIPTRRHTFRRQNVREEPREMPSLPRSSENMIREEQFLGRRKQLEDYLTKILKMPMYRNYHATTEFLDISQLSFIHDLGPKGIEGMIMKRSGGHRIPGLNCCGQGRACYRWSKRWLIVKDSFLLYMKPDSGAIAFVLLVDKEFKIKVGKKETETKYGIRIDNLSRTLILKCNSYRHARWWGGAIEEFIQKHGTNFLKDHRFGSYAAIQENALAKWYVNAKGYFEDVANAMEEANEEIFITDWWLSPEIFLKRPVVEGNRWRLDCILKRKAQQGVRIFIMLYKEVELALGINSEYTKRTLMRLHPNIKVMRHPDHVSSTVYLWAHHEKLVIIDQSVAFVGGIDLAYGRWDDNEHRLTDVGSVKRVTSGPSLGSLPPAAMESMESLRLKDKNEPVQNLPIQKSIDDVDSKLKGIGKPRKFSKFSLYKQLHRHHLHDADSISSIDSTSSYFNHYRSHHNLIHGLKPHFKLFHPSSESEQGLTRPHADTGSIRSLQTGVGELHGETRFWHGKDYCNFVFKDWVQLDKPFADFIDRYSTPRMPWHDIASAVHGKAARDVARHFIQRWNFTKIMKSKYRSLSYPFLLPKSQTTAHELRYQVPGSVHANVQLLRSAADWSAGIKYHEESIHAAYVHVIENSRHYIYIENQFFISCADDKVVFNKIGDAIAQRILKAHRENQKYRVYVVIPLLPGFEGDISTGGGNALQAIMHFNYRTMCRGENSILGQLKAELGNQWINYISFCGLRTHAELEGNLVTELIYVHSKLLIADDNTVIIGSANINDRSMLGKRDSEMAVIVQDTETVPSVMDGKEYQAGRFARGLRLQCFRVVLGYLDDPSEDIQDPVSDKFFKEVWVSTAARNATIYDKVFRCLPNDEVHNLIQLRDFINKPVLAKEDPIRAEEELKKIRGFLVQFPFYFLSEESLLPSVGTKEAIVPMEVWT

[5] = biological target: epidermal growth factor receptor (EGFR), endogenous in HeLa cells (human (endogenous in HeLa)) (UniProt P00533); assay: co-IP; EGFR-μ2 association in cells without or with transient expression of PLD1 fragment 296–312 (Figure 5C)
[6] = biological target: epidermal growth factor receptor (EGFR), endogenous in HeLa cells (human (endogenous in HeLa)) (UniProt P00533); assay: co-IP; extracts of EGF-treated HeLa cells transfected with PLD1 constructs, immunoprecipitated with anti-EGFR antibody and immunoblotted
[7] = biological target: T7, wild type PLD1 (rat-origin cDNA) expressed in HeLa cells (rat) (UniProt P70496); assay: co-IP; HeLa cells depleted of endogenous PLD1 and expressing vector, wild type, R304A or R304K PLD1, grown in DMEM with 10% fetal bovine serum; lysates immunoprecipitated with anti-PLD antibody
T7 sequence: T1 sequence with Q158R

[8] = biological target: epidermal growth factor receptor (EGFR), endogenous in HeLa cells (human (endogenous in HeLa)) (UniProt P00533); assay: condition: only in cells transfected with PLD1 (R304A), PLD1 (R158Q) or PLD1 (K898R) instead of wild type PLD1; co-IP; as a8, in the cells transfected with PLD1 (R304A), PLD1 (R158Q) or PLD1 (K898R) instead of wild type PLD1
[9] = biological target: T6, phospholipase D (PLD)1, endogenous in HeLa cells (human (endogenous in HeLa)); assay: co-IP; HeLa cells serum starved 12 h, EGF 20 nM (control or with t-butanol 0.4%); lysed in buffer A with 1% Triton X-100 and 1% cholic acid; extracts immunoprecipitated with anti-PLD antibody on Protein A-Sepharose, immunoblotted for μ2

## GST-μ2 (from UniProt Q96CW1 1-435)
PLD1 (R158Q) (rat)
  binding: no binding
Purified PLD1
  binding: binds

## purified μ2 (from UniProt Q96CW1 1-435)
[1]
  binding: no binding
[2]
  binding: no binding
[3]
  binding: binds
GST-fusion PLD1 296–312
  binding: binds

## μ2 subunit of AP2, endogenous in HeLa cells (from UniProt Q96CW1 1-435)
[4]
  binding: no binding (condition: with 1-butanol (0.4%))
[5]
  binding: binds
[6]
  binding: binds
[7]
  binding: binds
[8]
  binding: no binding
[9]
  binding: binds

B1: lipase inactive mutant PLD1 (K898R) (enzyme, UniProt P70496 1-1074)
chain: T1 sequence with Q158R, K898R
[6]
  binding: binds

B2: PLD1 (R304A) (enzyme, UniProt P70496 1-1074)
chain: T1 sequence with Q158R, R304A
[6]
  binding: binds

B3: PLD1 (R158Q) (enzyme, UniProt P70496 1-1074)
chain: T1 sequence
[6]
  binding: binds

From paper PMC2739277
